The list shows a part of the results. Viral Rep nickase domains cut single-stranded DNA in vitro at 3 µM enzyme and 37 °C for 1 h; the strands have 90 letters, of which the middle is given. Uncut reads are compared with the no-enzyme pool on a log2 scale; strong cutting gives strongly negative numbers. There is no active / inactive call. Reads are scaled to the total; uncut strands gain when others are lost, and binding without cutting may add a little.
Assays:
Assay in all cases: uncleaved DNA left, log2 of reads against the no-enzyme library (log2 ratio); higher = less cleavage (more negative = more Rep cleavage of the k-mer); sequences stand for … in CTCGTCCG…ACCGGAGA
[1] = tested on: T1, Rep nickase domain of Muscovy duck circovirus
T1 sequence (residues 1-111, tag not shown): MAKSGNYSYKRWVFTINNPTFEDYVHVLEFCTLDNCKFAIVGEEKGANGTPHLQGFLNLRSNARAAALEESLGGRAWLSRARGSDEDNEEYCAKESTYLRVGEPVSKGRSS
Procedure: (§1)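 A pool of 90-nt single-stranded DNAs with seven random bases just before the constant AC of the nick site (name = the seven bases) was cut by 3 µM recombinant His6-SUMO-tagged Rep nickase domain (300 nM DNA, 50 mM HEPES pH 8.0, 50 mM NaCl, 1 mM MnCl2, 1 h, 37 °C, three replicates). Uncut DNA was amplified and sequenced.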

[2] = tested on: T2, Rep nickase domain of banana bunchy top virus
T2 sequence (residues 1-94, tag not shown): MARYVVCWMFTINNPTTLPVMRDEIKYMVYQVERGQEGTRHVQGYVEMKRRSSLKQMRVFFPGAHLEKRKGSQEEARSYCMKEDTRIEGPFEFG
Procedure: as §1

[3] = tested on: T3, Rep nickase domain of cabbage leaf curl virus
T3 sequence (residues 1-116, tag not shown): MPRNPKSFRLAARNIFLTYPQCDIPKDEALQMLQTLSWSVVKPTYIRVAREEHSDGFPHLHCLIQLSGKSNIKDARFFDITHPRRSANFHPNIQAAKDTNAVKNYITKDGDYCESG
Procedure: as §1

[4] = tested on: T4, Rep nickase domain of chickpea chlorotic dwarf virus
T4 sequence (residues 1-124, tag not shown): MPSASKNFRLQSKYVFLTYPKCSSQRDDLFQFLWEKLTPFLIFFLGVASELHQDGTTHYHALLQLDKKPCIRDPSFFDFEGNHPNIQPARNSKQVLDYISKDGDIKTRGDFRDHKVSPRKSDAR
Procedure: as §1

[5] = tested on: T5, Rep nickase domain of faba bean necrotic yellows virus
T5 sequence (residues 1-98, tag not shown): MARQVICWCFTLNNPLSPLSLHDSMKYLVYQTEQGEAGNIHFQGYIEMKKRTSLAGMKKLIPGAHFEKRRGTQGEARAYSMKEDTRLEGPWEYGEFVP
Procedure: as §1

[6] = tested on: T6, Rep nickase domain of maize striate mosaic virus
T6 sequence (residues 1-117, tag not shown): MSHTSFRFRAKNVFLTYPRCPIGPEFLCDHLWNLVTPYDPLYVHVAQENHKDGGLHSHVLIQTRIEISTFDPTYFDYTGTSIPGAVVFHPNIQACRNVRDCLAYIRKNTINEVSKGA
Procedure: as §1

[7] = tested on: T7, Rep nickase domain of porcine circovirus 2
T7 sequence (residues 2-116, tag not shown): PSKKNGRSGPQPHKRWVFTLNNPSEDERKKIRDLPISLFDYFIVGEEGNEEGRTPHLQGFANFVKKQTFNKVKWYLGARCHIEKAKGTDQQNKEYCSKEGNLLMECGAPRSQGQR
Procedure: as §1

[8] = tested on: T8, Rep nickase domain of tomato yellow leaf curl virus
T8 sequence (residues 1-136, tag not shown): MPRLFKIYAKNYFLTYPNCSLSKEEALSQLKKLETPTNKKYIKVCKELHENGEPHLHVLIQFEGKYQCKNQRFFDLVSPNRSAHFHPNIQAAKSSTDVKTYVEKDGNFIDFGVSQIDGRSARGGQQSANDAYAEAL
Procedure: as §1

[9] = tested on: T9, Rep nickase domain of wheat dwarf virus
T9 sequence (residues 1-137, tag not shown): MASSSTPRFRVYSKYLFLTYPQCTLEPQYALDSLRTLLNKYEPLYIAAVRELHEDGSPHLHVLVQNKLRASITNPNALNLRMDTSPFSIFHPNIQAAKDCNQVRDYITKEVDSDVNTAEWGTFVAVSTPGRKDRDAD
Procedure: as §1

Sequence	uncleaved DNA left (log2) [1]	uncleaved DNA left (log2) [2]	uncleaved DNA left (log2) [3]	uncleaved DNA left (log2) [4]	uncleaved DNA left (log2) [5]	uncleaved DNA left (log2) [6]	uncleaved DNA left (log2) [7]	uncleaved DNA left (log2) [8]	uncleaved DNA left (log2) [9]
AATCAAA	-0.0077	0.102	0.0122	-0.0738	0.0164	-0.524	-0.0179	0.0707	0.0624
TCAAGTC	0.0899	-0.0924	-0.896	-1.56	-0.0972	-0.897	0.0175	-0.0395	-0.239
ATGGCTC	-0.0198	-0.0676	-0.0618	-0.595	0.0493	-0.242	-0.138	-0.135	-0.277
AACACAC	-0.0146	0.00409	-0.14	-0.505	0.065	-0.834	0.1	-0.0922	0.0209
CCAAAGG	-0.0405	0.0376	0.318	1.08	0.0713	0.349	0.204	0.019	0.0856
GTTGTAA	0.076	0.177	0.381	0.928	0.129	1.89	0.135	0.15	0.15
TGGTTCT	-0.706	-0.0862	0.188	-0.839	-0.0357	0.689	-2.76	-0.0473	-0.0722
TTACATA	0.0092	0.0156	0.00452	-1.28	0.042	-0.0272	-0.0541	0.0158	0.103
ACCCCCA	-0.0808	-0.0943	-0.16	-1.05	-0.159	-0.547	-0.205	-0.185	-0.16
GGCTCCA	0.0539	0.0593	0.221	0.525	0.0424	0.924	0.084	0.16	0.236
TTATACC	-0.576	0.0159	0.102	-1.16	-0.0678	-0.131	-2.92	-0.0603	-0.0505
GTAGTCC	0.005	0.0669	0.318	0.803	-0.103	1.57	0.102	0.0351	0.096
ATTGCGC	0.0322	-0.0106	0.087	1	0.0886	1.23	0.0905	0.0321	-0.092
TAAATTC	-0.102	-0.107	-3.35	-3.13	-0.0702	-1.87	-0.0575	-0.108	-2.31
TACATGC	0.0201	-0.0672	-0.724	-0.539	0.048	-1.29	0.131	-0.0218	-0.0941
ACTGTTT	-0.0726	-0.0843	-0.213	-1.22	0.0523	0.0438	-0.499	-0.114	-0.14
ACTTTTC	0.145	0.0963	-0.157	-0.214	0.101	-0.85	0.16	0.0202	0.113
CCATTGC	-0.0639	-0.142	-0.0552	1.34	-0.00941	1.05	0.078	0.0444	-0.121
TTCTAGA	-0.0839	-0.139	0.124	0.0903	-0.134	-0.198	0.0306	-0.00403	-0.0227
TCGTCGG	0.198	0.0758	0.569	1.44	0.19	2	0.211	-0.0281	-0.063

Sequence	uncleaved DNA left (log2) [1]	uncleaved DNA left (log2) [2]	uncleaved DNA left (log2) [3]	uncleaved DNA left (log2) [4]	uncleaved DNA left (log2) [5]	uncleaved DNA left (log2) [6]	uncleaved DNA left (log2) [7]	uncleaved DNA left (log2) [8]	uncleaved DNA left (log2) [9]
CATCCAT	-0.0669	-0.0507	-0.175	-1.55	-0.132	-0.645	-0.112	0.0221	0.125
TCATAGT	-3.24	-0.0434	-2.34	-2.56	0.00536	-1.21	-3.45	-0.0708	-0.254
GCCTTTG	0.0724	-0.0497	-0.164	-0.167	-0.0893	-0.671	0.0269	-0.0491	-0.0554
ACTAAAA	-0.0324	0.116	-0.0822	-0.0335	0.0323	-0.562	0.147	-0.0441	0.0291
GGGCTCA	0.0369	0.0314	0.833	1.9	-0.0901	2.21	0.164	0.126	0.151
ACCTGGC	-0.00112	0.0165	-0.448	-0.428	0.0165	-1.05	0.137	0.0876	-0.09
ACCAGCC	0.000746	0.0729	-0.331	-0.522	0.126	-0.888	0.193	0.0614	-0.0251
ACCTCAA	0.0509	-0.0138	-0.0199	-0.27	0.0912	-0.411	0.0932	0.00218	0.089
AAAAATA	-0.0409	0.00463	-0.442	-2.74	-0.0181	-0.744	-0.147	-0.0847	-0.0377
CGGGTGT	0.0683	-0.0343	0.204	0.637	0.00253	1.31	0.0725	0.0263	-0.112
AGAAGTC	0.023	0.00192	-0.285	-0.262	-0.00142	-0.507	0.0799	0.0101	-0.0268
TGGTACT	-1.57	-0.108	0.104	-0.776	-0.228	1.78	-3.66	0.0751	0.0116
GTGGGAC	0.099	0.11	0.616	1.37	-0.092	2.15	0.125	0.112	0.121
TCGGTAT	0.053	-0.0476	0.207	0.656	-0.093	1.35	0.0369	-0.0463	-0.00749
ATTGTTT	-0.189	-0.319	-0.286	-2.04	0.0185	-0.648	-2.28	-0.156	-0.15
AGGGTCG	-0.0163	0.0658	-0.537	-0.536	0.065	-0.74	0.249	0.062	-0.026
AGAAATT	0.113	0.098	0.106	-1.8	-0.0459	0.221	-1.2	0.158	0.0306
CTGCAAA	-0.0391	0.188	-0.0891	-0.133	0.0674	-1.04	0.0565	0.0433	0.0803
CTATGCA	-0.0564	0.0384	-0.66	-0.904	-0.012	-1.18	-0.0162	0.0612	0.0102
GCTGACC	-0.00953	0.104	0.0892	0.729	0.0274	1.05	0.155	-0.0122	0.0342

Sequence	uncleaved DNA left (log2) [1]	uncleaved DNA left (log2) [2]	uncleaved DNA left (log2) [3]	uncleaved DNA left (log2) [4]	uncleaved DNA left (log2) [5]	uncleaved DNA left (log2) [6]	uncleaved DNA left (log2) [7]	uncleaved DNA left (log2) [8]	uncleaved DNA left (log2) [9]
GACCTCC	-0.0718	-0.209	-0.0232	-0.0839	-0.0944	0.338	-0.077	-0.223	0.00789
GGTTGCG	-0.0102	-0.0747	0.105	1.09	0.0633	1.4	0.1	-0.246	-0.135
CGGTGGT	-0.0408	-0.215	0.0361	0.532	-0.0793	1.12	-1.06	-0.0835	-0.0789
CCCAACT	-0.0262	-0.0562	-0.398	-2.42	-0.0186	-0.811	-0.33	-0.168	-0.185
CCTATGT	0.0743	-0.104	-0.172	-0.287	-0.0311	-1.08	-0.325	-0.167	-0.00247
ACGACAC	-0.0653	0.000655	0.00519	0.295	0.00387	-0.0972	0.115	0.0698	0.0278
GATACGA	0.0794	0.11	0.071	0.362	0.0667	-0.0413	0.173	-0.0427	0.0914
AATCCGC	-0.0948	-0.125	-0.615	-0.658	-0.0209	-1.18	-0.0944	-0.14	-0.229
TGGGGTA	0.164	0.112	0.662	1.32	0.135	1.9	0.304	0.173	0.3
ACCAGAG	0.126	0.0101	-0.526	0.575	0.136	-0.264	0.278	0.196	0.0261
AAGGAAA	0.0925	0.0863	0.257	1.14	0.0565	1.22	0.211	-0.0715	0.134
AATGCTA	-0.149	0.0179	-0.0757	-0.525	-0.0567	0.0177	-0.161	-0.0247	-0.102
CTTCCGC	0.0146	0.0227	-0.366	-0.721	-0.00194	-0.931	0.00836	0.0498	-0.0619
TACAACG	-0.0754	-0.132	-1.05	-1.13	-0.00912	-1.42	0.0565	-0.237	-0.185
GGTAGTT	-0.151	-0.00335	0.489	1.09	-0.13	1.87	-0.0945	-0.018	-0.00728
CGGATTT	0.0912	0.0639	0.249	-0.172	-0.144	0.993	-0.116	0.00281	0.073
GTGAGGT	-0.102	-0.0483	0.444	1.06	-0.0839	1.64	0.16	0.0444	0.0407
CCAGTAG	0.139	-0.0295	-0.595	-0.375	0.146	-0.961	0.329	0.0635	0.103
CTGAAGT	8.7e-05	-0.0719	-0.139	-0.537	0.108	-0.816	-0.0685	0.00873	-0.0262
TCTCGAA	0.0981	-0.0442	0.123	-0.21	0.0385	-0.583	0.016	-0.162	-0.0406
